# In PubChem BioAssay AID588795 (National Center for Advancing Translational Sciences (NCATS), 2011):
# Screen size: about 390,000 compounds; about 1,400 (0.36%) were called active. This list was built around the results that the source calls inconclusive (neither active nor inactive); the mix of calls is not that of the screen. The call rests on the fitted dose curve; in most records, active means well fitted inhibition curve with a large enough effect; inconclusive means small, poorly fitted or top-dose-only effect; inactive means no such curve, though single readings can be large or run the other way. Where the call is inconclusive, the potency comes from a doubtful curve fit.
# Biological target: Flap endonuclease 1 (Homo sapiens) (UniProt P39748)
# Assay: qHTS Assay for the Inhibitors of Human Flap endonuclease 1 (FEN1). Further: nearly all actives have a fitted effect of over 65% in size.
# Details: Recombinant FEN1 flap cleavage, fluorescence, 15 min; series mostly up to 114 µM
# Outline: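 Reaction started by adding substrate (50 nM final) to 10 nM enzyme after 15 min room-temperature compound preincubation. Reads at 0 and 15 min, with data normalized and fitted to a four-parameter Hill equation.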
# Potency means the concentration at half of the fitted maximal effect; tags describe the fitted curve by direction and shape.
# Sequence of UniProt P39748 (P39748 whole entry, looked up): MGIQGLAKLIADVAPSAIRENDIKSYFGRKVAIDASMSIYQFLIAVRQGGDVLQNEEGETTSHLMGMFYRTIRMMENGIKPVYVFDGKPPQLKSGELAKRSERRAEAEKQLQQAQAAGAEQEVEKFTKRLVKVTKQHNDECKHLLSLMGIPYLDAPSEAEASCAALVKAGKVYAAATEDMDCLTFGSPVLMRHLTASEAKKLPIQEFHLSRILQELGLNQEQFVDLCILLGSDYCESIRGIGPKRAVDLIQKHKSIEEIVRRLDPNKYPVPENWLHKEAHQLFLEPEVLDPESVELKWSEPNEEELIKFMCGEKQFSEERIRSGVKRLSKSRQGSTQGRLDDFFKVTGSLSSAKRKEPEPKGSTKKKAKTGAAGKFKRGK
row,Compound,Potency
1,O=C1CC=C2C3CC4N(CCC45c4cc(O)c(O)cc4N1C25)CC3=CCBr (configuration not stated),"inconclusive: 56.2 µM [inhibitor, partial curve]"
2,c1ccc2c(c1)[I+]c1ccccc1-2,active: 50.1 µM
3,CN1C2CCC1C(C(=O)O)C(OC(=O)c1ccccc1)C2 (configuration not stated),"inconclusive: 89.1 µM [inhibitor, single point]"
4,CCOC(=O)c1c(C)n(Cc2ccc(F)cc2)c2ccc(O)cc12,"inconclusive: 70.8 µM [inhibitor, partial curve, poor fit]"
5,CCOc1ccc(-n2c(O)c(/C=C3\C=Nc4ccccc43)c(=O)[nH]c2=O)cc1,"inconclusive: 89.1 µM [inhibitor, single point]"
6,CCCNc1nc(-c2cc(C(=O)Nc3ccccc3)on2)cc(C(C)C)n1,"inconclusive: 79.4 µM [inhibitor, partial curve, poor fit]"
7,CC[n+]1c(/C=C/C=C/c2ccc(N(C)C)cc2)sc2ccccc21,active: 50.1 µM
8,Clc1ccccc1CN1CCN(c2ccccc2)CC1,"inconclusive: 31.6 µM [inhibitor, single point]"
9,COC(=O)c1c2[n+](cc3cc(OC)c(OC)cc13)CCc1cc(OC)c(OC)cc1-2,"inconclusive: 15.8 µM [inhibitor, partial curve, poor fit]"
10,O=C1NC(=O)C(=Cc2ccc3ccccc3c2)C(=O)N1,"inconclusive: 10 µM [inhibitor, full curve, poor fit]"
11,COc1ccc(/C=C2\C(=O)NC(=O)N(Cc3ccccc3)C2=O)c(OC)c1OC,"inconclusive: 79.4 µM [inhibitor, partial curve, poor fit]"
12,O=C(NN=Cc1ccc(N(CCCl)CCCl)cc1)c1cccc([N+](=O)[O-])c1,"inconclusive: 89.1 µM [inhibitor, single point]"
13,CC/C(=N\N1CCCCCC1)c1c(O)n(-c2ccccc2C)c(=O)[nH]c1=O,inactive
14,CN1CN(c2ccccc2)C2(CCN(CCCSc3ccccc3NC(=O)/C=C/c3ccccc3)CC2)C1=O,"inconclusive: 79.4 µM [inhibitor, partial curve]"
15,O=C(O)CCn1cc(C=C2C(=O)NC(=S)NC2=O)c(-c2cc3ccccc3oc2=O)n1,"inconclusive: 79.4 µM [inhibitor, partial curve, poor fit]"
16,CCN(CC)c1ccc(/C=C/[N+](=O)[O-])cc1,"inconclusive: 79.4 µM [inhibitor, partial curve, poor fit]"
17,C[C@H]1CC[C@@H]2[C@@H](C)[C@H]3C(CC4C5CC=C6CC(O[C@@H]7O[C@H](CO)C(O[C@@H]8O[C@@H](C)[C@H](O)[C@@H](O)[C@H]8O)[C@H](O)[C@H]7O[C@@H]7O[C@@H](C)[C@H](O)[C@@H](O)[C@H]7O)CC[C@]6(C)C5CC[C@@]43C)N2C1 (some centres not stated),"inconclusive: 89.1 µM [inhibitor, single point]"
